Data from publication PMC6919601, “Identification of Plasmodium dipeptidyl aminopeptidase allosteric inhibitors by high throughput screening” (PLoS ONE, 2019).
Hit rate of the full screen: of about 110,000 compounds, about 230 (0.21%) showed an effect of 50% or more. This is one part of the list.

Biological target: DPAP1 (Plasmodium falciparum, UniProt Q8IIJ9)
Test: primary screen, percent inhibition; read by cleavage of a fluorogenic dipeptide substrate; higher = more effect of the substance
Design: species or system P. falciparum D10 trophozoite lysates; single well
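Note: 30 min substrate incubation versus DMSO and 10 µM JCP410 controls.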

Sequence of DPAP1 (Q8IIJ9 whole entry, looked up): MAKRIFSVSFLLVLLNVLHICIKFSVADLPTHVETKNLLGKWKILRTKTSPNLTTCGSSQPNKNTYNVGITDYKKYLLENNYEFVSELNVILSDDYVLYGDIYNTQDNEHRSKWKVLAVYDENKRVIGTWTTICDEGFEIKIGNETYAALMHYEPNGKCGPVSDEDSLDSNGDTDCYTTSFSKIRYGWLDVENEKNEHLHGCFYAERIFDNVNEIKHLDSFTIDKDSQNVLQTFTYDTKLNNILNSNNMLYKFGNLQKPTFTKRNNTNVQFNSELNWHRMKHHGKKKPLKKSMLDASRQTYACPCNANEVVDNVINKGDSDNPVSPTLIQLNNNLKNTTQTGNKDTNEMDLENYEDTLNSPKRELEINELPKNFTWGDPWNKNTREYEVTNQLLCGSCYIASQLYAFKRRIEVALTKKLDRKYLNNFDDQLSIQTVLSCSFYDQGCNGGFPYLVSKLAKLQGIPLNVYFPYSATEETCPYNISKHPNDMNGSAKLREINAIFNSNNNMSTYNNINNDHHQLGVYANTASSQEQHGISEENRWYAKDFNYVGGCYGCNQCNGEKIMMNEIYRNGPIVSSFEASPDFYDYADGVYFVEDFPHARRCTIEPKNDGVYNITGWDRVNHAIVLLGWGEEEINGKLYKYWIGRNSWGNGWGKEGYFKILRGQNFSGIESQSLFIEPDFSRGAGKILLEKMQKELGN

First: CN1CCCN(C2C3CC4CC(C3)CC2C4)CC1 (stereo not drawn)
Second: COc1ccc(C(=O)N2CCN(C3CCC(c4ccccc4)CC3)CC2)cc1 (stereo not drawn)
The “% Inhibition @ 10 uM” value of the first is higher: 3.19% for the first, 0.611% for the second.

First: O=C(/C=C/c1ccccc1)N1CCN(c2ccc(F)cc2)CC1
Second: CCc1ccc(-c2nc(CSCC(=O)N3CCN(Cc4ccccc4)CC3)c(C)o2)cc1
The “% Inhibition @ 10 uM” value of the first is higher: 5.12% for the first, -1.27% for the second.

Going from `CC(C(=O)NCc1ccc2c(c1)OCO2)n1ncn2cccc2c1=O` (stereo not drawn) to `CCC(C(=O)NCc1ccccn1)n1ncn2c(cc3occc32)c1=O` (stereo not drawn), the “% Inhibition @ 10 uM” value falls from -3.43% to -5.63%.

Going from `COc1ccccc1/C=C(\C#N)C(=O)NCc1cccnc1` to `N#CCNC(=O)[C@H](Cc1ccc(Cl)c(Cl)c1)NC(=O)OCc1ccccc1`, the “% Inhibition @ 10 uM” value falls from 14.8% to -1.82%.

Compared with `CCn1ncc(CN(C)S(=O)(=O)c2cc(Cl)ccc2Cl)c1C`, `CN(CC(=O)Nc1ccccc1F)S(=O)(=O)c1cc(Cl)ccc1Cl` is higher in “% Inhibition @ 10 uM” value: -5.44% for the first, 2.6% for the second.

Going from `O=C(O)Cn1cc(/C=C2\C(=O)NC(=O)N(Cc3ccco3)C2=O)c2ccccc21` to `O=C(CCc1nnc2n(Cc3ccccc3)c(=O)c3ccccc3n12)NCc1ccco1`, the “% Inhibition @ 10 uM” value falls from 3.52% to -2.42%.

Compared with `CCOC(=O)c1cc(COC(=O)CC)oc1C`, `CCOC(=O)CN(C)Cc1ccc(Cl)c(Cl)c1` is higher in “% Inhibition @ 10 uM” value: -0.736% for the first, 1.62% for the second.

Going from `CCOC(=O)C1CCCCN1Cc1ccc(C(F)(F)F)cc1` (stereo not drawn) to `CCOC(=O)C1CCN(Cc2c(Cl)cccc2Cl)CC1`, the “% Inhibition @ 10 uM” value falls from -0.127% to -2.34%.

Compared with `COc1ccccc1C1CC(=O)NC(C)=C1C(=O)OCc1ccc(C)cc1` (stereo not drawn), `COc1ccc(CCNC(=O)c2cc3oc4ccccc4c3n2C)cc1OC` is higher in “% Inhibition @ 10 uM” value: -1% for the first, 3% for the second.

Compared with `CS(=O)(=O)N1CCC(Cc2ccccc2)CC1`, `CC1CCN(S(=O)(=O)c2ccc(NC(=O)CCc3ccccc3)cc2)CC1` is higher in “% Inhibition @ 10 uM” value: 4.9% for the first, 5.29% for the second.

Going from `CCOc1cc(C2C(C#N)=C(N)Oc3[nH]nc(-c4cc(OC)ccc4OC)c32)ccc1O` (stereo not drawn) to `COc1ccc(C2C(C#N)=C(N)Oc3c2sc2ccccc32)cc1OC` (stereo not drawn), the “% Inhibition @ 10 uM” value falls from 6.29% to 2.44%.

First: CCN(CC)CCCNC(=O)c1sc2ncn(CC(=O)N3CC(C)CC(C)C3)c(=O)c2c1C (stereo not drawn)
Second: CC1CCN(C(=O)Cn2nnc3sc4c(c3c2=O)CCC(C)C4)CC1 (stereo not drawn)
The “% Inhibition @ 10 uM” value of the first is higher: 8.71% for the first, 3.87% for the second.

Compared with `CCCCOc1ccc(NC(=O)NC2(c3ccccc3)CC2)cc1`, `O=C(NCc1ccco1)Nc1cccc2ccccc12` is higher in “% Inhibition @ 10 uM” value: -5.67% for the first, -5.51% for the second.

Going from `Cc1cc(C)nc(SCCn2c(N3CCOCC3)nc3c2c(=O)n(C)c(=O)n3C)n1` to `CCn1c(=O)c2c(nc3n2CCN3c2ccccc2)n(C)c1=O`, the “% Inhibition @ 10 uM” value rises from -0.946% to 6.47%.

First: O=C1NC(c2cccc3ccccc23)Nc2sc3c(c21)CCCC3 (stereo not drawn)
Second: O=C1c2ccccc2C(=O)c2c(NC3CCCCC3)cccc21
The “% Inhibition @ 10 uM” value of the first is higher: 6.4% for the first, -4.21% for the second.

Compared with `CCOC(=O)N1CCN(c2c(N3CCN(CC)CC3)c(=O)c2=O)CC1`, `CCOC(=O)N1CCC(NC(=O)Nc2cn(C)c(=O)c3ccccc23)CC1` is lower in “% Inhibition @ 10 uM” value: 1.93% for the first, -2.14% for the second.

First: CCC(Sc1nc2ccccc2c2nc(CCn3cncc3C)nn12)C(=O)NCc1ccc(C)cc1 (stereo not drawn)
Second: CC(CNC(=O)CCc1nnc2n(CCc3ccccc3)c(=O)c3ccccc3n12)c1ccccc1 (stereo not drawn)
The “% Inhibition @ 10 uM” value of the first is lower: 3.05% for the first, 4.16% for the second.

Compared with `COc1ccc(/C=C2\SC(=O)N(CC(=O)Nc3ccccc3F)C2=O)cc1OC`, `COc1ccc(-c2csc3ncn(CC(=O)Nc4ccccc4Cl)c(=O)c23)cc1OC` is higher in “% Inhibition @ 10 uM” value: -3.43% for the first, -1.6% for the second.

First: CCCSc1nnc2c(n1)OC(C)Nc1ccccc1-2 (stereo not drawn)
Second: CC1CCC(C(C)C)C(=O)/C1=C\c1cnc(-c2ccccc2)nc1 (stereo not drawn)
The “% Inhibition @ 10 uM” value of the first is lower: -7.12% for the first, 10.8% for the second.

Going from `C=C(C)CC1(NC(C)c2ccccc2)CCCCC1` (stereo not drawn) to `CN(Cc1ccccc1)C(C(=O)NC1CCCC1)c1ccccc1` (stereo not drawn), the “% Inhibition @ 10 uM” value falls from 3.16% to 0.457%.

Going from `CC1CCc2c(C(=O)NCc3ccco3)csc2C1` (stereo not drawn) to `COc1ccc(OC)c(C2=NOC(C(=O)NCc3ccco3)C2)c1` (stereo not drawn), the “% Inhibition @ 10 uM” value falls from 3.54% to -6.03%.

First: Cc1cc2c(n1-c1ccc(C(=O)N3CCC4(CC3)OCCO4)cc1)CCC(C)C2 (stereo not drawn)
Second: COc1ccc(-c2cc(C(=O)N3CCN(C)CC3)no2)cc1
The “% Inhibition @ 10 uM” value of the first is lower: -5.88% for the first, 0.723% for the second.

First: COC(=O)CCS(=O)(=O)c1ccc(C)cc1
Second: CC(=O)CC(C)(C)S(=O)(=O)c1ccc(Cl)cc1
The “% Inhibition @ 10 uM” value of the first is higher: 4.82% for the first, -2.03% for the second.

Going from `O=C(c1cnn2c1NC(c1ccccc1)CC2C(F)(F)F)N1CCN(Cc2ccccc2)CC1` (stereo not drawn) to `O=C(c1cnn2ccccc12)N1CCN(C(c2ccccc2)c2ccccc2)CC1`, the “% Inhibition @ 10 uM” value falls from 2.23% to -3.14%.

First: O=C(COCc1cc(-c2ccc(F)cc2)on1)NCC1CCCO1 (stereo not drawn)
Second: O=C(O)c1cc2n(n1)C(C(F)(F)F)CC(c1ccc(F)cc1)N2 (stereo not drawn)
The “% Inhibition @ 10 uM” value of the first is lower: 0.44% for the first, 4.61% for the second.

Going from `COc1cc2nc(NCCC(C)C)n3nc(-c4cccnc4)nc3c2cc1OC` to `COc1ccc(/C=C2\N=C(c3ccccc3C)OC2=O)c(OC)c1`, the “% Inhibition @ 10 uM” value falls from -0.905% to -2.6%.

First: CCC1CCC(N(CC)CCN(CC)CC)CC1 (stereo not drawn)
Second: CCOCCCNC(=O)C1CCCN(S(=O)(=O)CC)C1 (stereo not drawn)
The “% Inhibition @ 10 uM” value of the first is lower: -4.04% for the first, 3.24% for the second.

Compared with `CC(C)C[C@H](N[C@H](C(=O)N1CCOCC1)c1ccc(-c2ccc(S(C)(=O)=O)cc2)cc1)C(=O)NCC#N`, `COc1ccc(C2N(C(C)=O)CCCN2S(=O)(=O)c2ccc(C)cc2)cc1` (stereo not drawn) is lower in “% Inhibition @ 10 uM” value: -6.46% for the first, -7.15% for the second.

Compared with `CCN(CCCNC(=O)C1CCCN(c2ncnc3c2nc2n3CCCCC2)C1)Cc1ccccc1` (stereo not drawn), `Cc1nn(CC(=O)NC2CCCc3ccccc32)c(=O)c2cccn12` (stereo not drawn) is lower in “% Inhibition @ 10 uM” value: 2.1% for the first, 0.0811% for the second.

Going from `O=C(O)c1cc(-c2ccco2)nc2ccccc12` to `CN(C(=O)c1cc(F)c(Cl)nc1Cl)c1ccccc1`, the “% Inhibition @ 10 uM” value falls from 4.75% to 0.907%.

Going from `COc1ccc2c(c1)CCc1c(C(=O)Nc3cnn(Cc4ccccc4C)c3)noc1-2` to `COc1ccc(C(=O)Nc2cc(C)c(O)c(S(=O)(=O)c3ccccc3)c2C)cc1`, the “% Inhibition @ 10 uM” value falls from -0.591% to -5.27%.

First: Cc1ccc(CNC(=O)NC(C)c2c(-n3cccc3)sc3c2CCN(C)C3)cc1 (stereo not drawn)
Second: Cc1ccc(S(=O)(=O)N(CC(=O)NC(C)C)c2ccccc2Cl)cc1
The “% Inhibition @ 10 uM” value of the first is lower: -1.68% for the first, -1.24% for the second.

First: CCOc1ccc(C2C(C#N)=C(N)OC3=C2C(=O)CC(C)(C)C3)c(OCC)c1 (stereo not drawn)
Second: C=CCOc1c(Br)cc(C2C(C#N)=C(N)OC3=C2C(=O)CC(C)(C)C3)cc1OC (stereo not drawn)
The “% Inhibition @ 10 uM” value of the first is lower: -1.07% for the first, 0.722% for the second.

Compared with `CC(CCc1ccccc1)N(C)CCN(C)C` (stereo not drawn), `CC(O)c1nc2ccccc2n1Cc1cccc(Cl)c1` (stereo not drawn) is higher in “% Inhibition @ 10 uM” value: -1.56% for the first, 1.12% for the second.

Going from `COc1cccc(C2=N/C(=C\c3ccc(C)o3)C(=O)O2)c1` to `Cc1ccc(NC(=O)CN2C(=O)N/C(=C/c3ccc(C)o3)C2=O)cc1`, the “% Inhibition @ 10 uM” value falls from -2.78% to -2.98%.

Going from `O=C(COc1ccccc1Cl)Nc1sc2c(c1C(=O)O)CCCC2` to `NC(=O)c1c(NC(=O)CN2CCOCC2)sc2c1CCCC2`, the “% Inhibition @ 10 uM” value falls from 4.19% to -3.92%.

Going from `Cc1cc(C)cc(NC(=O)c2ccc(Cn3nc(C)c(Cl)c3C)o2)c1` to `CCCNC(=O)CCc1c(C)nc2nc(-c3ccc(Cl)cc3Cl)nn2c1C`, the “% Inhibition @ 10 uM” value rises from -1.06% to 4.14%.

First: Fc1ccccc1OCCOCCN1CCCC1
Second: c1ccc2cc3[nH]c(CN4CCCCC4)nc3cc2c1
The “% Inhibition @ 10 uM” value of the first is lower: -1.82% for the first, 2.45% for the second.

Going from `CCc1ccc(C2CC(=O)N=C(N)N2)cc1` (stereo not drawn) to `CCSC1=C(C#N)C(c2ccc(O)cc2)CC(=O)N1` (stereo not drawn), the “% Inhibition @ 10 uM” value rises from -3.3% to 2.36%.

Compared with `N#Cc1ccc(/C=C2/SC(=O)NC2=O)cc1`, `CCN(CC)S(=O)(=O)c1ccc(C#N)cc1` is lower in “% Inhibition @ 10 uM” value: 7.5% for the first, 2.94% for the second.

Going from `CC1=C(C(=O)Nc2ccc(C)cn2)C(c2ccccc2)C2=C(O)CC(C)(C)CC2=N1` (stereo not drawn) to `Cc1ccc(NC(=O)c2cccc(C(=O)Nc3ccc(C)cn3)n2)nc1`, the “% Inhibition @ 10 uM” value rises from -2.87% to -1.82%.

Compared with `O=C(OCC(c1ccccc1)c1ccccc1)c1cccnc1`, `OC(c1ccccc1)c1nc2ccccc2[nH]1` (stereo not drawn) is higher in “% Inhibition @ 10 uM” value: -1.98% for the first, 3.87% for the second.

Compared with `COc1cccc(C2NC(c3cccc(OC)c3O)C(C)C(=O)C2C)c1O` (stereo not drawn), `COc1cc(C2NC(C(=O)O)Cc3c2[nH]c2ccccc32)cc(OC)c1O` (stereo not drawn) is higher in “% Inhibition @ 10 uM” value: 3.94% for the first, 4.89% for the second.

Going from `Cc1cc(C)c2c(-n3cccc3)c(C(=O)NC3CCC(C)CC3)sc2n1` (stereo not drawn) to `Cc1ccc2c(c1)-c1c(cnn1CC(=O)NC1CCCCC1)CO2`, the “% Inhibition @ 10 uM” value rises from 0.623% to 3.54%.

Compared with `CCN(Cc1ccccc1)C(=O)c1cc2c(s1)-c1ccccc1S(=O)(=O)C2`, `Cc1[nH]c2ccccc2c1CCNC(=O)CCC(=O)c1ccccc1` is higher in “% Inhibition @ 10 uM” value: -2.67% for the first, -2.5% for the second.

First: COc1ccc(Cl)cc1NS(=O)(=O)c1ccc(Cl)cc1
Second: O=C(COc1ccc(Cl)cc1Br)N1CCc2ccccc21
The “% Inhibition @ 10 uM” value of the first is higher: -3.04% for the first, -3.26% for the second.

Going from `COc1ccc(/N=c2\scc(-c3ccc(OC)cc3F)n2CCO)cc1` to `COc1cc(NCc2cccs2)cc(OC)c1`, the “% Inhibition @ 10 uM” value rises from -4.39% to -3.27%.

First: CCOC(=O)C(CN(C)C)Oc1ccc(Cl)cc1 (stereo not drawn)
Second: CCOc1cccc(-n2cc(-c3ccccc3)nc2S)c1
The “% Inhibition @ 10 uM” value of the first is lower: -4.26% for the first, 42.6% for the second.

Compared with `O=C1NC(c2ccccc2Cl)C(C(=O)c2ccccc2)C(O)(C(F)(F)F)N1` (stereo not drawn), `CC(C)(C)NC(=O)c1oc2ccccc2c1NC(=O)Cc1ccc(F)cc1` is lower in “% Inhibition @ 10 uM” value: 4.61% for the first, -0.528% for the second.

Going from `Nc1nc(NCc2ccc(F)cc2)nn1-c1ccccc1` to `COc1ccc(-c2nnn3c2nc(N2CCC(C)CC2)c2ccccc23)cc1`, the “% Inhibition @ 10 uM” value falls from 0.13% to -4.69%.

Compared with `CC12CC3CC(C)(C1)CC(C(N)=O)(C3)C2`, `Cc1cc(C)n2nc(-c3cccc(Br)c3)cc2n1` is higher in “% Inhibition @ 10 uM” value: 1.24% for the first, 4.67% for the second.
